# Source: ChEMBL document CHEMBL5308541, “MAIP: An Open-Source Tool to Enrich High-Throughput Screening Output and Identify Novel, Druglike Molecules with Antimalarial Activity” (ACS Med Chem Lett, 2023)
# Out of some 150,000 compounds screened, about 540 (0.36%) showed an effect of 50% or more. The list shows a part of the results.
# Test system: Plasmodium falciparum
# Test: Primary screen in NF54 nanoGlo assay, in single point, at 2uM, 72h; a lower Z score goes with more inhibition
# Assay type: functional, Erythrocyte
# Settings: timepoint 72 hour
SMILES,% Inhibition [%],Z score
CN(CCCN1CCN(c2cccc(Cl)c2)CC1)C1CC2CNC(=O)CC2C1 (stereo unspecified),0,0
CCCN1CCC(NC2CCN(c3cccc(N4CCNC4=O)c3)CC2)CC1,-16,2.77
O=S(=O)(c1cccnc1)N1CCC(CNc2ncnc3cnccc23)CC1,-1,0.17
CC(C)c1cc(-c2ccnc3[nH]ccc23)nc(C(F)(F)F)n1,-7,1.37
COc1ccc2nc(CN3CCC(Oc4ncccc4F)CC3)[nH]c2n1,-5,0.82
Cc1cc(NC(C)CN2CC(C)CC(C)C2)nc(N)n1 (stereo unspecified),2,-0.27
Fc1ccc2c(CCNC3CCN(c4nccs4)CC3)c[nH]c2c1,1,-0.19
O=S(=O)(c1ccccc1CNc1ccc2ncccc2c1)N1CCOCC1,1,-0.12
NC(=O)c1cc(C(=O)N[C@@H](CCO)c2cccs2)c[nH]1,-4,0.78
CC(C)(O)c1cncc(-c2cccc(C(=O)N3CCC4CNCC43)c2)c1 (stereo unspecified),1,-0.09
Cc1cc(C(=O)Nc2ccc3[nH]c([C@H](C)O)nc3c2)nc(C)n1,-7,1.6
NCc1ccc(-c2cnc(N3CCC(O)CC3)nc2)cc1C(F)(F)F,1,-0.19
COCC1CCN(c2ccnc3cc(F)ccc23)CC1,7,-1.37
c1ccc2nc(-c3ccnc4[nH]ccc34)cnc2c1,-4,0.62
Oc1cc(CN2CC(O)C(Cc3ccc4ccccc4n3)C2)nc2ccccc12 (stereo unspecified),-1,0.32
CCN(CC)CCN(CC)C(=O)c1ccc(-c2[nH]nc3c2CCc2cc(OC)ccc2-3)cc1,6,-1.08
Cc1cccc2c(-c3cncc(C(C)(C)O)c3)c[nH]c12,-6,1.11
NC(=O)C1CC=CCC1NC1CCN(c2cccc(-c3ccccc3)c2)CC1 (stereo unspecified),-5,0.93
COc1ncnc(C)c1-c1ccc(N2CCNCC2)cc1,2,-0.46
CC(C)c1cc(NC(=O)c2ccc3c(c2)N(C)CCO3)n(C(C)C)n1,8,-1.28
COCC[C@]1(C(N)=O)CCCN(C2CCN(C(=O)CCc3c[nH]c4ccccc34)CC2)C1,-7,1.24

SMILES,% Inhibition [%],Z score
O=C(O)c1ccc(-c2ccc3[nH]ccc3c2)nn1,-9,1.32
CCN1CCC[C@H](CN2CCC(c3cc[nH]c(=O)c3)CC2)C1,-7,1.17
Cc1cc(N2CCC(N(C)Cc3ncc(-c4ccccc4C)o3)CC2)nc(C)n1,-3,0.66
COc1ccc(CN2CCCNC(=O)[C@@H](C(C)C)NC(=O)[C@@H](C)NC(=O)CCC2)cc1Cn1cccn1,-3,0.66
CC(C)N1CC23C=CC(O2)C(C(=O)Nc2nc(-c4ccc(F)cc4)cs2)C3C1=O (stereo unspecified),-6,1.37
Nc1nc(NCC2CCN(CCc3ccccc3)CC2)cc([C@H]2C[C@@H](N)C2)n1,28,-5.5
Nc1nc(CCCNc2nccc(-c3ccccn3)n2)cs1,9,-2
COCC(=O)NCC(O)(c1cccs1)c1cccs1,-1,0.28
O=C(COc1ccc(-c2csc3ccccc23)cc1CN1CCOCC1)N1CCCC[C@H]1c1cccnc1,-9,1.52
CN1CC(=O)N(CC(=O)NC[C@H]2CC[C@@H]3C[C@H]2C3(C)C)C1=O,-8,1.19
FC(F)(F)Oc1cccc(C2(NCc3ccc4cn[nH]c4c3)CCOCC2)c1,-6,0.88
CN1CCN(c2cc(N3CC[C@H](OCc4ccncc4)C3)ncn2)CC1=O,-11,1.61
CC(C)CCC1CCCC1NCCCN1CCOCC1 (stereo unspecified),6,-1.29
COC1COCC1NS(=O)(=O)c1cc(C(N)=O)cs1 (stereo unspecified),-12,1.99
C[C@@H](CCNc1nccs1)N1CCN(C)CC1,-3,0.65
FC(F)(F)c1cccnc1NCC[C@H]1CCCCN1C1CCCC1,2,-0.24
CC(C)N1CCC(Nc2nc(-c3ccccc3)cc(C(F)(F)F)n2)CC1,7,-1.35
FC(F)(F)c1cccnc1NCCNCc1c[nH]nc1-c1cccnc1,-8,1.62
COC1(OC)CCOCC1NC(=O)CC(C)Cc1cccc(F)c1 (stereo unspecified),8,-1.81
NC(=O)C12CCCC1CN(C(=O)NC(c1cccnc1)C1CC1)C2 (stereo unspecified),-4,0.91
OCC1CCN(Cc2ccccc2NCc2cnc3ccccc3c2)CC1,-2,0.34

SMILES,% Inhibition [%],Z score
CN(Cc1cc(-c2ccncc2)no1)C(=O)NC[C@H]1CCCN(CCO)C1,3,-0.59
COc1ccccc1CCNC(=O)Cc1ccc(N2CCC(NCCc3c[nH]cn3)CC2)cc1,5,-0.93
C[C@@H](CO)N(C)c1ncc(Cl)cn1,-2,0.31
CN1CCC[C@@H](CNCc2cccc3cc[nH]c23)[C@@H]1c1cncn1C,7,-1.12
NS(=O)(=O)c1ccc2[nH]c(-c3ccc(N4CCCC4)cc3)nc2c1,1,-0.18
O=C(NC1CC1)C1CCCC(Nc2ncnc3cc(F)c(F)cc23)C1 (stereo unspecified),-14,2.41
Nc1nc(NCc2cnc3ccccc3c2)cc(C2CC(N)C2)n1 (stereo unspecified),6,-0.85
Fc1cncnc1NCc1cn(-c2cccs2)nn1,-6,0.92
CC(C)(CN1CCCC1)NC(=O)c1ccc(-c2cccc3c(N)ccnc23)cc1,14,-2.46
Cc1nc(N)sc1C(=O)NC1CCN(C(=O)N2CCOCC2)CC1,-1,0.18
O=C(NCC1CN(C(=O)c2ccccc2)C2CCN1C2)c1cc2c(F)cccc2[nH]1 (stereo unspecified),-8,1.34
O[C@@]1(CN(CC#Cc2ccccc2)C2CC2)CCCN2CCCC[C@@H]21,-8,1.33
CCC[C@H]1CN(C(=O)OC(C)(C)C)CCN1c1cc(-n2ccnc2)ncn1,0,-0.06
CCOC(=O)N1CCN(C(=O)c2ccc(N3CCC(NC[C@H]4COCCO4)CC3)cc2)CC1,-6,1.23
Cc1nc(N2CCC(CNC(=O)OC(C)(C)C)CC2)c2cc[nH]c2n1,3,-0.44
c1cc(CNC2CCN(c3nccs3)CC2)cc(OC2CCC2)n1,-7,1.61
Cc1cnccc1NCCNC1CCN(C(=O)[C@@H]2CCCO2)CC1,-9,1.97
Cc1nc2c(c(N3CC[C@H](N(C)C)C3)n1)CCN(c1ccncc1)CC2,-3,0.47
Cc1ccc(NC(=O)c2ccc(Nc3ccc(-c4cccc(F)c4)nn3)cc2)c(C)c1,-13,2.19
CN1CCC(N(Cc2ccncc2)C(=O)NCCN2CCC[C@H](CO)C2)CC1,-13,2.21
CCCCc1ccc(Nc2nc3ccccc3nc2Nc2ccc(CCCC)cc2)cc1,5,-0.94

SMILES,% Inhibition [%],Z score
COCCCn1ccc(Nc2ccc3nccnc3n2)n1,1,-0.17
COc1cc2nc(N[C@H]3CCN(C(C)C)C3=O)nc(N)c2cc1OC,-1,0.28
CN(C)C(=O)c1ccc(CN2CC(CC(=O)O)C(c3c[nH]nn3)C2)o1 (stereo unspecified),-5,0.89
Nc1nc(N2CCCC3(CCNCC3)C2)nc2ccccc12,6,-0.86
OC(CNc1ccc(Nc2ccccc2)cc1)CNc1ccc(Nc2ccccc2)cc1,-16,2.79
O[C@H](COC1CCOCC1)CN1CCC(Oc2cnccn2)CC1,-2,0.48
CCN1CC(C)N(CC=CCN2CC(C)N(CC)CC2C)CC1C (stereo unspecified),2,-0.43
COC1CN(Cc2ccc(CN(C)S(C)(=O)=O)o2)CC1O (stereo unspecified),0,-0.07
c1ccc2c(c1)CCN2c1cc(N[C@H]2CCOC3(CCCC3)C2)ncn1,1,-0.16
C[C@H]1c2sccc2CCN1C(=O)C1CC(N(C)C(=O)OC(C)(C)C)C1 (stereo partly specified),-14,2.44
CN(C)C1(CNCc2cnc(NCc3ccccc3)nc2)CCCCC1,8,-1.79
CC(NC(=O)C(C)C1CN(C(=O)OC(C)(C)C)C1)c1cc(F)ccc1N1CCN(C)CC1 (stereo unspecified),-7,1.13
Fc1ccc2c(C3CCN(CC4=CCCOC4)CC3)c[nH]c2c1,4,-0.68
O=C(c1cccc(Nc2cnccn2)c1)N1CCN[C@H](c2ccccc2Cl)C1,-6,0.84
CC1(C)CC(NC2CCOCC2OCC2CC2)CC(C)(C)N1 (stereo unspecified),-3,0.51
Cc1ccc2ncc(C(=O)N(C)Cc3nc4ccccc4s3)c(O)c2c1,-3,0.51
Cc1c2c(=O)n(-c3ccc(F)cc3)[nH]c2cc(=O)n1CCc1c[nH]c2ccc(Cl)cc12,-1,0.2
C[C@H]1CNCCN1C(=O)c1ccc(-c2cnn(Cc3ccccc3)c2)cc1,6,-1.29
Cn1cc(CNCCNc2ncccn2)c(-c2ccncc2)n1,-14,2.45
Cn1ncnc1-c1cccc(Nc2cccc(N3CC[C@H](Oc4cnccc4C#N)C3)n2)c1,5,-1.05
